The other results are listed elsewhere or left out. The energies were worked out here from pooled read counts, against the library average; single values are noisy.
Molecular target: T1, Pho4 (S. cerevisiae) (UniProt P07270)
T1 sequence: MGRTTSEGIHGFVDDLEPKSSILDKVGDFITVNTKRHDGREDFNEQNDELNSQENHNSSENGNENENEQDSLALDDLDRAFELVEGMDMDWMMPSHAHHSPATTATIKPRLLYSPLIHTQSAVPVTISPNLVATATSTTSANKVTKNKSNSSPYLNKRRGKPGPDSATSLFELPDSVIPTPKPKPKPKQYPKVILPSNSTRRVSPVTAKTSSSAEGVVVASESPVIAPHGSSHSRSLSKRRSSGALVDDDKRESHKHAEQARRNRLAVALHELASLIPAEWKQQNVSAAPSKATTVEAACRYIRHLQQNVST
Experiment: relative binding free energy (BET-seq); higher = weaker binding
Conditions: reference: library average

Sequence	relative binding free energy
AGATTCACGTGTGCGT	0.09 kcal/mol
AGTTCCACGTGAGTTG	0.29 kcal/mol
ATGGCCACGTGGGTCG	-0.22 kcal/mol
TAAGGCACGTGACGTG	-0.06 kcal/mol
GTCTACACGTGTTGTA	0.01 kcal/mol
CTAGGCACGTGAATTG	0.19 kcal/mol
TTTTGCACGTGCGATT	0.07 kcal/mol
TTATACACGTGGTGTT	-0.01 kcal/mol
AAGTACACGTGTATAT	0.12 kcal/mol
TGGTTCACGTGTGCTT	0.22 kcal/mol
TTATTCACGTGCAGGG	0.29 kcal/mol
TGGGGCACGTGGTCCG	-0.16 kcal/mol
ATCTTCACGTGGGAGG	0.24 kcal/mol
GTTATCACGTGAATTT	0.33 kcal/mol
ATGTTCACGTGTATAT	0.21 kcal/mol
GTGAGCACGTGTGACT	0.14 kcal/mol
GGGGTCACGTGATTCG	0.3 kcal/mol
TTTCTCACGTGTAAAG	0.3 kcal/mol
CGTTTCACGTGCAGGG	0.21 kcal/mol
GGTTGCACGTGCTTAA	0.05 kcal/mol
TTAAGCACGTGTACTA	0.05 kcal/mol
GCATGCACGTGTTTGT	-0.07 kcal/mol
GTAAACACGTGAGTTG	0.16 kcal/mol
GTTAGCACGTGGAGTG	0.02 kcal/mol
GTGTTCACGTGTGGTG	0.33 kcal/mol

Sequence	relative binding free energy
GGAATCACGTGGCCGG	0.22 kcal/mol
GTGAACACGTGTGGGG	0.1 kcal/mol
TTGATCACGTGGCGGC	-0.01 kcal/mol
AGGGTCACGTGGCAGT	0.08 kcal/mol
TGGAGCACGTGTTTAT	-0.12 kcal/mol
GATCGCACGTGATGTT	0.23 kcal/mol
GCTTTCACGTGTCTGT	0.34 kcal/mol
TTTAACACGTGGTAAA	0.03 kcal/mol
GGTATCACGTGTGGCG	0.33 kcal/mol
CATGACACGTGGGGGT	-0.1 kcal/mol
CGGTGCACGTGTTCTT	0.02 kcal/mol
ATTCACACGTGGGTAT	-0.06 kcal/mol
TCTTTCACGTGAGGTT	0.24 kcal/mol
TGTAACACGTGAATTG	0.2 kcal/mol
GTTCACACGTGGTTAT	0.09 kcal/mol
GCGGTCACGTGTTCGG	0.15 kcal/mol
TTGTGCACGTGGTTCG	-0.04 kcal/mol
CTGTACACGTGATATG	0.18 kcal/mol
GTTAGCACGTGCAGAT	0.21 kcal/mol
ATGGGCACGTGTGCAC	-0.08 kcal/mol
TGTTACACGTGGGAAG	0.11 kcal/mol
CTGGGCACGTGATAGT	0.01 kcal/mol
CAAGTCACGTGTGGGT	0.04 kcal/mol
TTTAACACGTGGTTCT	-0.03 kcal/mol
GATTTCACGTGAAGGA	0.56 kcal/mol

Sequence	relative binding free energy
GTTTCCACGTGTAGTA	0.09 kcal/mol
GGTTCCACGTGAAGGT	0.3 kcal/mol
ACGGGCACGTGTGGAG	-0.02 kcal/mol
GTTTACACGTGTTATT	0.22 kcal/mol
TTTTTCACGTGTACTC	0.3 kcal/mol
TTAGTCACGTGGCGAG	0.13 kcal/mol
TTGGGCACGTGACATG	-0.05 kcal/mol
GATCTCACGTGTAGGT	0.26 kcal/mol
CAAGTCACGTGATGGG	0.15 kcal/mol
TTTAGCACGTGCGTAA	-0.09 kcal/mol
TGGTTCACGTGTTCTG	0.25 kcal/mol
TTAAGCACGTGGATTT	-0.03 kcal/mol
GGTTTCACGTGTTAAA	0.27 kcal/mol
TTCTACACGTGTGTTT	0.14 kcal/mol
GTTATCACGTGTTATG	0.11 kcal/mol
TTAAACACGTGCTGTT	-0.13 kcal/mol
TTGGGCACGTGTATGC	-0.17 kcal/mol
GGTGTCACGTGTAGAA	0.07 kcal/mol
GGATACACGTGTGGAG	0.11 kcal/mol
CTTGGCACGTGTTCGG	-0.17 kcal/mol
TAGGTCACGTGGAGTG	0.12 kcal/mol
AAAAGCACGTGGGGTC	-0.14 kcal/mol
GAAGTCACGTGGGCAT	0.05 kcal/mol
CAAGGCACGTGTAATG	0.03 kcal/mol
TTTATCACGTGTAAGA	0.23 kcal/mol

Sequence	relative binding free energy
CTAGGCACGTGGATGG	-0.17 kcal/mol
GCGGTCACGTGATGTA	0.2 kcal/mol
AAGGGCACGTGGTATT	-0.09 kcal/mol
AGTGTCACGTGTAGTC	-0.16 kcal/mol
ATCATCACGTGTTATG	0.06 kcal/mol
GCATTCACGTGCTGGT	0.27 kcal/mol
ATTTGCACGTGGTACG	0.07 kcal/mol
TTAGGCACGTGTGGTA	0.01 kcal/mol
TTAGGCACGTGTGTAA	-0.01 kcal/mol
TAATTCACGTGGATCG	0.3 kcal/mol
GAGTCCACGTGTGATT	0.37 kcal/mol
AGGGTCACGTGTGGCT	0.18 kcal/mol
GTTGTCACGTGCTGCG	0.11 kcal/mol
AAGTACACGTGTGGTA	0.16 kcal/mol
TATGACACGTGGGTGC	-0.1 kcal/mol
TAGAGCACGTGGTTTG	-0.11 kcal/mol
ATTGCCACGTGAGTGT	0.01 kcal/mol
AAGGTCACGTGGGTTG	-0.04 kcal/mol
TTTCGCACGTGCGGTT	-0.1 kcal/mol
ATTCTCACGTGAAAGT	0.5 kcal/mol
GGTGGCACGTGGATAG	0.12 kcal/mol
TGTTGCACGTGGGGTT	-0.08 kcal/mol
AAGGCCACGTGATGGG	0.07 kcal/mol
AGGGTCACGTGGGATA	-0.14 kcal/mol
GAGGCCACGTGGTAGT	-0.06 kcal/mol

Sequence	relative binding free energy
GAGCACACGTGGTGAG	0.16 kcal/mol
TGAGTCACGTGGATGA	0.05 kcal/mol
ATTACCACGTGTGTTG	-0.08 kcal/mol
TCGTTCACGTGGTGGT	0.3 kcal/mol
GGTATCACGTGGCTAG	0.08 kcal/mol
GAGTTCACGTGTTGGG	0.4 kcal/mol
TGAGTCACGTGATTAG	0.22 kcal/mol
CGGTTCACGTGGGTAA	0.17 kcal/mol
GAATTCACGTGGGTGG	0.24 kcal/mol
TGATACACGTGCTGTA	0.21 kcal/mol
GGAATCACGTGTTAGT	0.3 kcal/mol
TTTTGCACGTGTAAGA	0.09 kcal/mol
TACATCACGTGGTTAT	0.17 kcal/mol
TGGCGCACGTGCATGG	-0.03 kcal/mol
AGGTCCACGTGGTTCG	0.03 kcal/mol
GTTTCCACGTGTTGTG	0.18 kcal/mol
TTGGACACGTGGTTTC	0.14 kcal/mol
ATATGCACGTGGGGGA	-0.21 kcal/mol
AAGTACACGTGGATAG	0.14 kcal/mol
ATGGACACGTGTGAAG	0.2 kcal/mol
TTAGACACGTGCGTGA	-0.01 kcal/mol
ACTGTCACGTGGGTGA	0.03 kcal/mol
GTGTGCACGTGTCGAG	-0.02 kcal/mol
CTTGACACGTGAGTAG	0.26 kcal/mol
TCAGTCACGTGTGTTA	0.12 kcal/mol

Sequence	relative binding free energy
AGTAGCACGTGAGTAA	0.18 kcal/mol
AAGCTCACGTGGGCGT	0.17 kcal/mol
GTTCACACGTGTAAGT	0.22 kcal/mol
TACTTCACGTGTTAAT	0.28 kcal/mol
TGGAACACGTGGCTTG	-0.01 kcal/mol
GGTCGCACGTGGGAGA	-0.06 kcal/mol
TGACGCACGTGATTTG	0 kcal/mol
GCGGTCACGTGGTGGA	0.14 kcal/mol
GGGCGCACGTGTGGGA	-0.06 kcal/mol
TTGTTCACGTGTTCTG	0.18 kcal/mol
AATGGCACGTGGATGA	0.03 kcal/mol
TGTTGCACGTGTAAAT	0.21 kcal/mol
AGGTGCACGTGGCTAG	-0.14 kcal/mol
GGTGTCACGTGATTAC	0.24 kcal/mol
TTATGCACGTGAAGGT	0.13 kcal/mol
TGTCGCACGTGTTGCT	-0.09 kcal/mol
AGAGCCACGTGGTAGT	-0.22 kcal/mol
GATGGCACGTGGCTTG	-0.13 kcal/mol
GCGGACACGTGGTGGA	0.06 kcal/mol
TTAGTCACGTGGAAGA	0.06 kcal/mol
TTATTCACGTGTGGGT	0.24 kcal/mol
